Reference: paper PMC9911399, “Two distinct binding modes provide the RNA-binding protein RbFox with extraordinary sequence specificity”
Numbering of substitutions follows the chain as printed; changes in the protein carry UniProt numbers. This is one part of the list.

T1: RBFOX1 RRM (Homo sapiens, UniProt Q9NWB1 109-208)
T1 sequence: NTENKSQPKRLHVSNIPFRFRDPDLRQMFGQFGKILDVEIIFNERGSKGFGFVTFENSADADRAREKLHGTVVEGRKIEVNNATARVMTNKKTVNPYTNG

B1: UCUUGCU (DNA:RNA)
RNA: GGGAGACCGGAAUUCAGAUUGUCCUCUUGCUUUAAAUCCCGUCGUAGCCACCA
DNA 1: CAATCTGAATTCCGGTCTCCC
DNA 2: TGGTGGCTACGACGGGATT
B2: AAACGCG (DNA:RNA)
RNA: B1 RNA with U25A, C26A, U27A, U28C, U31G
DNA 1: CAATCTGAATTCCGGTCTCCC
DNA 2: TGGTGGCTACGACGGGATT
B3: GUGCAUC (DNA:RNA)
RNA: GGGAGACCGGAAUUCAGAUUGUCCGUGCAUCUUAAAUCCCGUCGUAGCCACCA
DNA 1: CAATCTGAATTCCGGTCTCCC
DNA 2: TGGTGGCTACGACGGGATT
B4: AAGCAAA (DNA:RNA)
RNA: B3 RNA with G25A, U26A, U30A, C31A
DNA 1: CAATCTGAATTCCGGTCTCCC
DNA 2: TGGTGGCTACGACGGGATT
B5: GAGUCUU (DNA:RNA)
RNA: B3 RNA with U26A, C28U, A29C, C31U
DNA 1: CAATCTGAATTCCGGTCTCCC
DNA 2: TGGTGGCTACGACGGGATT
B6: AAGUAUU (DNA:RNA)
RNA: B3 RNA with G25A, U26A, C28U, C31U
DNA 1: CAATCTGAATTCCGGTCTCCC
DNA 2: TGGTGGCTACGACGGGATT
B7: GGGUAGU (DNA:RNA)
RNA: B3 RNA with U26G, C28U, U30G, C31U
DNA 1: CAATCTGAATTCCGGTCTCCC
DNA 2: TGGTGGCTACGACGGGATT
B8: UGACAGC (DNA:RNA)
RNA: B3 RNA with G25U, U26G, G27A, U30G
DNA 1: CAATCTGAATTCCGGTCTCCC
DNA 2: TGGTGGCTACGACGGGATT
B9: AACCCAC (DNA:RNA)
RNA: B3 RNA with G25A, U26A, G27C, A29C, U30A
DNA 1: CAATCTGAATTCCGGTCTCCC
DNA 2: TGGTGGCTACGACGGGATT
B10: ACUGUCG (DNA:RNA)
RNA: B1 RNA with U25A, U28G, G29U, U31G
DNA 1: CAATCTGAATTCCGGTCTCCC
DNA 2: TGGTGGCTACGACGGGATT
B11: GCCUGUC (DNA:RNA)
RNA: B3 RNA with U26C, G27C, C28U, A29G
DNA 1: CAATCTGAATTCCGGTCTCCC
DNA 2: TGGTGGCTACGACGGGATT
B12: ACUAUUU (DNA:RNA)
RNA: B1 RNA with U25A, U28A, G29U, C30U
DNA 1: CAATCTGAATTCCGGTCTCCC
DNA 2: TGGTGGCTACGACGGGATT
B13: ACUUAGC (DNA:RNA)
RNA: B1 RNA with U25A, G29A, C30G, U31C
DNA 1: CAATCTGAATTCCGGTCTCCC
DNA 2: TGGTGGCTACGACGGGATT
B14: GGGGGUA (DNA:RNA)
RNA: B3 RNA with U26G, C28G, A29G, C31A
DNA 1: CAATCTGAATTCCGGTCTCCC
DNA 2: TGGTGGCTACGACGGGATT
B15: GAAGUAC (DNA:RNA)
RNA: B3 RNA with U26A, G27A, C28G, A29U, U30A
DNA 1: CAATCTGAATTCCGGTCTCCC
DNA 2: TGGTGGCTACGACGGGATT
B16: CAGUGCC (DNA:RNA)
RNA: B1 RNA with U25C, C26A, U27G, U31C
DNA 1: CAATCTGAATTCCGGTCTCCC
DNA 2: TGGTGGCTACGACGGGATT
B17: GACCUGG (DNA:RNA)
RNA: B3 RNA with U26A, G27C, A29U, U30G, C31G
DNA 1: CAATCTGAATTCCGGTCTCCC
DNA 2: TGGTGGCTACGACGGGATT
B18: CAACGUU (DNA:RNA)
RNA: B3 RNA with G25C, U26A, G27A, A29G, C31U
DNA 1: CAATCTGAATTCCGGTCTCCC
DNA 2: TGGTGGCTACGACGGGATT
B19: UCGAUAA (DNA:RNA)
RNA: B1 RNA with U27G, U28A, G29U, C30A, U31A
DNA 1: CAATCTGAATTCCGGTCTCCC
DNA 2: TGGTGGCTACGACGGGATT
B20: GUCUCAU (DNA:RNA)
RNA: B3 RNA with G27C, C28U, A29C, U30A, C31U
DNA 1: CAATCTGAATTCCGGTCTCCC
DNA 2: TGGTGGCTACGACGGGATT
B21: UCACUUC (DNA:RNA)
RNA: B3 RNA with G25U, U26C, G27A, A29U
DNA 1: CAATCTGAATTCCGGTCTCCC
DNA 2: TGGTGGCTACGACGGGATT
B22: CCUGACA (DNA:RNA)
RNA: B1 RNA with U25C, U28G, G29A, U31A
DNA 1: CAATCTGAATTCCGGTCTCCC
DNA 2: TGGTGGCTACGACGGGATT
B23: GGCGGGC (DNA:RNA)
RNA: B3 RNA with U26G, G27C, C28G, A29G, U30G
DNA 1: CAATCTGAATTCCGGTCTCCC
DNA 2: TGGTGGCTACGACGGGATT
B24: UGUUACU (DNA:RNA)
RNA: B1 RNA with C26G, G29A
DNA 1: CAATCTGAATTCCGGTCTCCC
DNA 2: TGGTGGCTACGACGGGATT
B25: AGCACGC (DNA:RNA)
RNA: B3 RNA with G25A, U26G, G27C, C28A, A29C, U30G
DNA 1: CAATCTGAATTCCGGTCTCCC
DNA 2: TGGTGGCTACGACGGGATT
B26: GUUCGAA (DNA:RNA)
RNA: B3 RNA with G27U, A29G, U30A, C31A
DNA 1: CAATCTGAATTCCGGTCTCCC
DNA 2: TGGTGGCTACGACGGGATT
B27: UUCGGAA (DNA:RNA)
RNA: B1 RNA with C26U, U27C, U28G, C30A, U31A
DNA 1: CAATCTGAATTCCGGTCTCCC
DNA 2: TGGTGGCTACGACGGGATT
B28: ACAUAUA (DNA:RNA)
RNA: B3 RNA with G25A, U26C, G27A, C28U, C31A
DNA 1: CAATCTGAATTCCGGTCTCCC
DNA 2: TGGTGGCTACGACGGGATT
B29: GAUGCCG (DNA:RNA)
RNA: B1 RNA with U25G, C26A, U28G, G29C, U31G
DNA 1: CAATCTGAATTCCGGTCTCCC
DNA 2: TGGTGGCTACGACGGGATT
B30: UACCAGC (DNA:RNA)
RNA: B3 RNA with G25U, U26A, G27C, U30G
DNA 1: CAATCTGAATTCCGGTCTCCC
DNA 2: TGGTGGCTACGACGGGATT
B31: CAUCCUC (DNA:RNA)
RNA: B3 RNA with G25C, U26A, G27U, A29C
DNA 1: CAATCTGAATTCCGGTCTCCC
DNA 2: TGGTGGCTACGACGGGATT

Target: T1, RBFOX1 RRM
Test: EMSA; HiTS-Eq, 1 nM pool, 10 min; buffer printed only for the single-RNA assays: 10 mM Tris pH 7.5, 150 mM NaCl, 3.4 mM EDTA, 0.001% NP-40, 30 C
Details: tags: His6 N-terminal (pET28a); label: 5' 32P
Procedure, shortened: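 Relative association constants, normalised to the cognate motif, were derived by comparing read counts of each RNA species with those of the control reaction. The RNA sequenced was the free fraction, separated by 8% native PAGE after a 10 min equilibration in 50 µL of 1 nM 5′-radiolabelled RNA (7 randomized nucleotides) with increasing concentrations of purified wild-type or mutant RbFox RRM.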

Binder	binding signal
B1	0.0191 KA relative to UGCAUGU
B2	0.0023 KA relative to UGCAUGU
B3	0.0315 KA relative to UGCAUGU
B4	0.00128 KA relative to UGCAUGU
B5	0.0155 KA relative to UGCAUGU
B6	0.0026 KA relative to UGCAUGU
B7	0.0186 KA relative to UGCAUGU
B8	0.0137 KA relative to UGCAUGU
B9	0.00473 KA relative to UGCAUGU
B10	0.0107 KA relative to UGCAUGU
B11	0.0275 KA relative to UGCAUGU
B12	0.00183 KA relative to UGCAUGU
B13	0.00895 KA relative to UGCAUGU
B14	0.026 KA relative to UGCAUGU
B15	0.0079 KA relative to UGCAUGU
B16	0.00746 KA relative to UGCAUGU

Binder	binding signal
B17	0.0193 KA relative to UGCAUGU
B18	0.0031 KA relative to UGCAUGU
B19	0.00672 KA relative to UGCAUGU
B20	0.00884 KA relative to UGCAUGU
B21	0.00407 KA relative to UGCAUGU
B22	0.00293 KA relative to UGCAUGU
B23	0.0218 KA relative to UGCAUGU
B24	0.014 KA relative to UGCAUGU
B25	0.0234 KA relative to UGCAUGU
B26	0.0191 KA relative to UGCAUGU
B27	0.00868 KA relative to UGCAUGU
B28	0.00156 KA relative to UGCAUGU
B29	0.0098 KA relative to UGCAUGU
B30	0.00367 KA relative to UGCAUGU
B31	0.00301 KA relative to UGCAUGU
